Read counts are not given, so values of variants with three or more changes are uncertain.
B1: LINE1-full (parent)
chain: UACGUAGGUGGUUUUCCCCUGAUAGUGCUAAGGGGGCCUGGAAGUUUGGACUGGGCAGAGCUCAACACAGCGUGGCAAAGUGGCUGUGGCUAGACUGCCUCUCUGGAUUCCUCGUCACUCAGCAGGGCAUCUCUGAGAGAAAUGCC

Variants of: B1
Assay: self-cleavage, relative activity (ratio to wild type); higher = more cleavage; in vitro, sequencing; the parent is a self-cleaving ribozyme
Work on U29C A92U A129G A136G yielded a self-cleavage of 1.02.
With U13A A59U A77U the self-cleavage was 0.47.
Variant U39G G105A U109C C110U A129G C145G has a self-cleavage of 2.06.
Variant U12C C56U A69G A117G U130C U143A has a self-cleavage of 0.46.
Work on U104A U109C A121G A124G yielded a self-cleavage of 0.
Variant U9G G40A U134G has a self-cleavage of 1.27.
In the case of U15G A59G A65U C90A U108C A129G, the self-cleavage is reported as 0.
Work on G21U A57C U104A A140G yielded a self-cleavage of 0.04.
U39C U85C A94G gave a self-cleavage of 0.
U13C A42G U47A G89U showed a self-cleavage of 0.1.
With U1G A2G A69G U81C A136U U143G the self-cleavage was 1.84.
With U47A U134C A138G the self-cleavage was 1.17.
In the case of A42U U73C U132A, the self-cleavage is reported as 1.18.
For A30G A92U A136G, the self-cleavage was 0.71.
A42G A57U G114A U130C showed a self-cleavage of 0.13.
For C18A U26C U73A A107U C110A A138G, the self-cleavage was 0.98.
Variant U52C A117G U119A U143A has a self-cleavage of 0.
Variant U9C A30G A69G U119A A140G has a self-cleavage of 2.51.
Variant U62A A92G U108C has a self-cleavage of 0.04.
For G34A U39C A59G G72A A140G, the self-cleavage was 0.03.
Variant G7A U15A A64U U73C A136G has a self-cleavage of 0.
For U26C U73A U85C U134A, the self-cleavage was 0.12.
For U5C U39C U46C U85A, the self-cleavage was 0.23.
In the case of U29C A59G A79G, the self-cleavage is reported as 0.4.
For G55A A69G U91C U132C, the self-cleavage was 0.05.
For A43G U100A U112A, the self-cleavage was 1.05.
For U1C U47A G75A U81A U87C, the self-cleavage was 0.11.
U52A U87C C120U A142G showed a self-cleavage of 0.22.
A43U A117G U143A gave a self-cleavage of 1.44.
G35A A77G G82A A124G showed a self-cleavage of 0.96.
Work on U9A U29A A138G yielded a self-cleavage of 1.27.
For A2G U15C U87C G105A A121G A141G A142G, the self-cleavage was 0.
In the case of U26A G33U U39A, the self-cleavage is reported as 1.45.
Variant U26C U47C A138G has a self-cleavage of 1.6.
Work on U13C A78G A94G yielded a self-cleavage of 0.39.
Work on A94G A136C A141G yielded a self-cleavage of 0.
Work on U9C U12C U13C A64U U130G A142G yielded a self-cleavage of 0.89.
U13C U52C A121G A129G gave a self-cleavage of 0.
With U1C U47A U104C the self-cleavage was 0.71.
A31G U52C U85A U132C showed a self-cleavage of 0.28.
For U13G U14C U46C A57U A69G U87A C123A G144A, the self-cleavage was 0.32.
A92U C95U A129G showed a self-cleavage of 0.19.
Work on A79G U108C C111A yielded a self-cleavage of 2.18.
C16U U20C U29A U119C A129U U134C showed a self-cleavage of 0.74.
In the case of U9C A57G U119C U130C, the self-cleavage is reported as 1.67.
Work on A67G C110A U130C yielded a self-cleavage of 0.25.
Work on A43G A69U G70A yielded a self-cleavage of 0.02.
With C19U A57U A124G U132C the self-cleavage was 0.1.
Variant U100A U119A A140G has a self-cleavage of 0.98.
Variant U52A A57C C101U A117G A138G G139U has a self-cleavage of 0.05.
G35A U52C U96C showed a self-cleavage of 0.03.
Work on G106A G122A G135A yielded a self-cleavage of 1.22.
For A65U C71U A141G, the self-cleavage was 0.1.
Work on A31U A57G A67G G72A yielded a self-cleavage of 0.59.
A64U U108A U119C U134A A138G gave a self-cleavage of 0.55.
With U9C U15C U46C the self-cleavage was 0.78.
U12C C28G U119C gave a self-cleavage of 0.88.
Variant U62A C63U A69U U102C has a self-cleavage of 0.04.
In the case of A77G U119C A138G, the self-cleavage is reported as 1.75.
U9A U47A A79G gave a self-cleavage of 0.43.
In the case of A79G U96A U115C, the self-cleavage is reported as 0.05.
In the case of U1C A124U U130C, the self-cleavage is reported as 1.24.
U46A A57C A79G A117C showed a self-cleavage of 0.16.
Work on A6G G40C U132G A138G yielded a self-cleavage of 1.6.
In the case of U26C U81C A138G, the self-cleavage is reported as 0.
Work on A2G U12A U100C C128U yielded a self-cleavage of 1.04.
For A22G U46C A124U U134G, the self-cleavage was 1.48.
For A43G A78G U115A, the self-cleavage was 1.4.
For A121G A141G U143C, the self-cleavage was 2.55.
Work on U26A A42G A65G yielded a self-cleavage of 0.17.
U52C C116U G126A U130C gave a self-cleavage of 1.04.
U12C U81A G135A showed a self-cleavage of 2.01.
For U12A A140G A141G, the self-cleavage was 0.94.
In the case of A6G A31U A42G U73C U87A, the self-cleavage is reported as 0.25.
Work on C19A U96G U115A yielded a self-cleavage of 0.
U9C G89U C123U gave a self-cleavage of 0.09.
In the case of A24U U62C U108G, the self-cleavage is reported as 0.
Work on A6G U15A G93U U112C yielded a self-cleavage of 0.08.
Variant U12C C17A U81C has a self-cleavage of 1.7.
A42G C51U U143A showed a self-cleavage of 1.55.
Work on G48A U132A A138U yielded a self-cleavage of 1.32.
Work on U62C U81C U104C G105A yielded a self-cleavage of 0.06.
Variant U91C C99U U115C has a self-cleavage of 0.24.
For U62A G122C U134A, the self-cleavage was 0.02.
For A65G G89U U108C, the self-cleavage was 0.02.
U14C A77G U134C gave a self-cleavage of 1.36.
Variant C18G U26C U47C A65G C84U U96A has a self-cleavage of 0.
A6G U109A A141G showed a self-cleavage of 0.93.
U9G U20A U39A U46A A94C showed a self-cleavage of 0.07.
A6G U15C U115C gave a self-cleavage of 1.67.
For A117U A124U U130A, the self-cleavage was 1.45.
In the case of A22G A42G A57G, the self-cleavage is reported as 1.57.
Work on U52C A65G U85C yielded a self-cleavage of 0.
With U39C A42U A121G the self-cleavage was 0.79.
U14A U104A U119C gave a self-cleavage of 1.63.
U20C U23C U47A A117U showed a self-cleavage of 1.47.
With U62C U87A A94G U100C the self-cleavage was 0.
With U12G U14C A79U A121U the self-cleavage was 1.31.
A42G G72A U119C G137A gave a self-cleavage of 1.95.
Variant A24G A94U A142G has a self-cleavage of 0.37.
Work on U26A A77U U104C yielded a self-cleavage of 1.28.
U26C A124U U134A showed a self-cleavage of 1.56.
With U14C U85C A121G the self-cleavage was 0.
In the case of U1C U13C U87G A140G, the self-cleavage is reported as 0.
C37G U62C U143C gave a self-cleavage of 0.07.
Variant U46A A107U U109C has a self-cleavage of 1.41.
In the case of U15C G74A U81G U87C A129U, the self-cleavage is reported as 0.15.
U13C U62A A121C gave a self-cleavage of 0.
For U13A U115C A124G A136U, the self-cleavage was 0.
U39C A43G U115A A142G gave a self-cleavage of 2.3.
G32A A57G U104A gave a self-cleavage of 0.17.
Variant A79G U112A A136G has a self-cleavage of 2.03.
Work on A94G A140U A142G yielded a self-cleavage of 0.09.
With U47C U109C U115A C118U G125U the self-cleavage was 1.33.
In the case of U45A U85C U100C, the self-cleavage is reported as 0.54.
Variant A2G U26C G58U U73C has a self-cleavage of 0.12.
A94U U134C A140G showed a self-cleavage of 0.31.
With U9C U85A U119A U132A the self-cleavage was 0.07.
U52G U62C A124G showed a self-cleavage of 0.
For A50U A65U A78G U85A, the self-cleavage was 0.02.
Work on U9A U12C U134C yielded a self-cleavage of 0.63.
U15C A57U A136U showed a self-cleavage of 0.12.
A2G U26A U39A G53A gave a self-cleavage of 0.58.
For A64C U96C U115C, the self-cleavage was 0.
U26A U52G A138G A142G showed a self-cleavage of 0.5.
U9C U52C C90U A136G C146U gave a self-cleavage of 0.07.
For U119C G135A C145A, the self-cleavage was 1.76.
Variant U12G A57G A67U U130C has a self-cleavage of 0.
A57G A78G U85C A138G showed a self-cleavage of 0.
For U1C A43G A67G U81A, the self-cleavage was 1.4.
A2G U14C U39C A43G U52A showed a self-cleavage of 0.47.
With U39A U47A A78U U112C C145G the self-cleavage was 1.63.
U9C A22G U132C gave a self-cleavage of 0.97.
Variant G32A C131U A138G has a self-cleavage of 0.78.
Variant U29C U46C A65C has a self-cleavage of 0.24.
In the case of U45C U108C G125U, the self-cleavage is reported as 1.44.
With U14C A79G C90U the self-cleavage was 0.07.
For U9A G82A U104A, the self-cleavage was 0.94.
Work on U23C A24G C51U yielded a self-cleavage of 1.19.
In the case of U15C A79G C95U U102C U134A, the self-cleavage is reported as 0.1.
With U14C A31G A64U A79G A140U the self-cleavage was 0.84.
Variant C56U U109C U112A A121G has a self-cleavage of 0.05.
A24G U85C G125A U130C showed a self-cleavage of 0.56.
With A43U U96C U115A U130A A136C the self-cleavage was 0.06.
U9C U13C U81A A138G A142G showed a self-cleavage of 2.22.
Work on C56U U87C U96C yielded a self-cleavage of 0.28.
U13C A121G A136G gave a self-cleavage of 1.56.
A57G A78G A92U showed a self-cleavage of 0.1.
Variant U96A U102A A138U A142G has a self-cleavage of 0.01.
For U9C C61A A67U, the self-cleavage was 0.1.
Variant U15G A57G A78G has a self-cleavage of 1.07.
With U5C A43G U91C G106U the self-cleavage was 0.38.
In the case of C3U A65G U96C G97U U108C, the self-cleavage is reported as 0.14.
For U14C A50G A69G U73A G83A A129U, the self-cleavage was 0.08.
Variant A2U U13A U23C U96C A138G has a self-cleavage of 0.26.
With U20C A31G A69G A142G the self-cleavage was 0.61.
Work on C19U U115A A129U yielded a self-cleavage of 1.12.
In the case of A57G A67G U115C, the self-cleavage is reported as 0.
For A69U U81A U104A A142G, the self-cleavage was 0.
Work on U14C C95U U130C yielded a self-cleavage of 0.29.
Work on U13C A57G G75A yielded a self-cleavage of 0.55.
Work on U52A A117G A121G yielded a self-cleavage of 1.12.
Work on U20C U119C A124U yielded a self-cleavage of 1.33.
For G48C A67G A79G U96A U132C, the self-cleavage was 0.13.
Variant A78G G82A U100C has a self-cleavage of 1.98.
In the case of U39G G105U U132A, the self-cleavage is reported as 1.18.
A6U A117G A138G showed a self-cleavage of 1.88.

Reference: the RNAGym collection of RNA variant scans (doi:10.7554/elife.90254)
